We go through three molecules from the supplement of paper PMC12423691.

The other results are listed elsewhere or left out. Binding of human transcription factors and regulators to the viral nucleoprotein by AlphaScreen, crude cell-free proteins, amounts not normalised, one pass. Fold of the Venus control; higher = more signal. No active / inactive call. Single-pass screen; sequences are the whole Swiss-Prot entries looked up by name.

The labels stand for the following.
B1: FOXD4L1, Q9NU39 (protein)
chain: MNLPRAERPRSTPQRSLRDSDGEDGKIDVLGEEEDEDEVEDEEEEASQKFLEQSLQPGLQVARWGGVALPREHIEGGGPSDPSEFGTEFRAPPRSAAASEDARQPAKPPYSYIALITMAILQSPHKRLTLSGICAFISGRFPYYRRKFPAWQNSIRHNLSLNDCFVKIPREPGHPGKGTYWSLDPASQDMFDNGSFLRRRKRFKRHQLTPGAHLPHPFPLPAAHAALHNPRPGPLLGAPALPQPVPGAYPNTAPGRRPYALLHPHPPRYLLLSAPAYAGAPKKAEGADLATPGTLPVLQPSLGPQPWEEGKGLASPPGGGCISFSIESIMQGVRGAGTGAAQSLSPTAWSYCPLLQRPSSLSDNFAATAAASGGGLRQRLRSHQGRGAGRAPVGRVGAAAVSGGGRGL
B2: CREB3L1, Q96BA8 (protein)
chain: MDAVLEPFPADRLFPGSSFLDLGDLNESDFLNNAHFPEHLDHFTENMEDFSNDLFSSFFDDPVLDEKSPLLDMELDSPTPGIQAEHSYSLSGDSAPQSPLVPIKMEDTTQDAEHGAWALGHKLCSIMVKQEQSPELPVDPLAAPSAMAAAAAMATTPLLGLSPLSRLPIPHQAPGEMTQLPVIKAEPLEVNQFLKVTPEDLVQMPPTPPSSHGSDSDGSQSPRSLPPSSPVRPMARSSTAISTSPLLTAPHKLQGTSGPLLLTEEEKRTLIAEGYPIPTKLPLTKAEEKALKRVRRKIKNKISAQESRRKKKEYVECLEKKVETFTSENNELWKKVETLENANRTLLQQLQKLQTLVTNKISRPYKMAATQTGTCLMVAALCFVLVLGSLVPCLPEFSSGSQTVKEDPLAADGVYTASQMPSRSLLFYDDGAGLWEDGRSTLLPMEPPDGWEINPGGPAEQRPRDHLQHDHLDSTHETTKYLSEAWPKDGGNGTSPDFSHSKEWFHDRDLGPNTTIKLS
B3: TNFSF11, O14788 (protein)
chain: MRRASRDYTKYLRGSEEMGGGPGAPHEGPLHAPPPPAPHQPPAASRSMFVALLGLGLGQVVCSVALFFYFRAQMDPNRISEDGTHCIYRILRLHENADFQDTTLESQDTKLIPDSCRRIKQAFQGAVQKELQHIVGSQHIRAEKAMVDGSWLDLAKRSKLEAQPFAHLTINATDIPSGSHKVSLSSWYHDRGWAKISNMTFSNGKLIVNQDGFYYLYANICFRHHETSGDLATEYLQLMVYVTKTSIKIPSSHTLMKGGSTKYWSGNSEFHFYSINVGGFFKLRSGEEISIEVSNPSLLDPDQDATYFGAFKVRDID

In this test the target is nucleoprotein N of Crimean-Congo hemorrhagic fever virus. Kind of test: AlphaScreen luminescence signal relative to Venus negative control (fold); higher = stronger binding to CCHFV N. As for the experimental part:
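AlphaScreen binding of cell-free made, FLAG-GST-tagged human transcription factors and regulators (crude translation products) to biotinylated N protein; signal as fold of the FLAG-GST-Venus control. One pass.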
For the molecule B1, the AlphaScreen luminescence signal was determined as 2.51.
Next, B2: 2.05; B3: 2.65.
